Hit rate of the full screen: of about 310,000 compounds, about 2,200 (0.71%) showed an effect of 50% or more. Effects have a minus sign here. Some of the results follow.

The target of this assay is human ether-à-go-go-related gene (hERG) potassium channel (human, UniProt Q12809). In words: primary screen, population patch clamp on CHO cells stably expressing hERG.
Sequence of human ether-à-go-go-related gene (hERG) potassium channel (Q12809 whole entry, looked up): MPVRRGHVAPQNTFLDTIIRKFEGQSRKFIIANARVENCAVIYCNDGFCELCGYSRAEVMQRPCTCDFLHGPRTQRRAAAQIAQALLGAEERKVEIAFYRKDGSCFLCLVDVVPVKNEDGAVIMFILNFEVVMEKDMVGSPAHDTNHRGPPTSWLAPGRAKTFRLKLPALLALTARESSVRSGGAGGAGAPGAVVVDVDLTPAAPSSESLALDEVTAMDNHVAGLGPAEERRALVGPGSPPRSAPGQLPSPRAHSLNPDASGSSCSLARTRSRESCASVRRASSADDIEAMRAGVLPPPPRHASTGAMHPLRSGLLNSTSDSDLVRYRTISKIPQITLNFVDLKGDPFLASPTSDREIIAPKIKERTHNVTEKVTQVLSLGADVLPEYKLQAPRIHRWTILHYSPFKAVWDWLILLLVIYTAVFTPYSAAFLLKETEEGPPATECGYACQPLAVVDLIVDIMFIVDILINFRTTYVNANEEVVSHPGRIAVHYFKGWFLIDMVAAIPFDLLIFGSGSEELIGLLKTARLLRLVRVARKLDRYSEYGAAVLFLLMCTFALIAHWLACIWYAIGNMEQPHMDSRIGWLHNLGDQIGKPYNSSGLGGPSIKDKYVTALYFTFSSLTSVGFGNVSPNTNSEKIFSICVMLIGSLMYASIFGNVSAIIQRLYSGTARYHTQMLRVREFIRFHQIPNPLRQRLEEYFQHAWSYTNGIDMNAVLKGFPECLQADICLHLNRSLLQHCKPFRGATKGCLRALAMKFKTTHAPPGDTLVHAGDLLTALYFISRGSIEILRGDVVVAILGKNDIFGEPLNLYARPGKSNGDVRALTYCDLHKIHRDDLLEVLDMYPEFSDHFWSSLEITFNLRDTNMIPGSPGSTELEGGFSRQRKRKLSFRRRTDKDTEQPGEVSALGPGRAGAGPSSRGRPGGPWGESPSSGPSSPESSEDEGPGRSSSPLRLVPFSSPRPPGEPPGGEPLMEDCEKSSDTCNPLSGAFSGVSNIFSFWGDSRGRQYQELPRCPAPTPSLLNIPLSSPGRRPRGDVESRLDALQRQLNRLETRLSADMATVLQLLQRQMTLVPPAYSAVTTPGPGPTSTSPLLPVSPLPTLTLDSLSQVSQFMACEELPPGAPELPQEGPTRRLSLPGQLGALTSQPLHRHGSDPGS
Turning to `O=C(NC(c1ccccc1)c1ccccc1)C1CCCC1`, the “hERG current change (%, negative = inhibition) at 1uM” value stood at 7.4%.
Under `Fc1ccc(C2c3cccn3CCN2C(=S)Nc2cccc(F)c2)cc1` (stereo not shown) stands 5.14%.
Under `CN(C(=O)c1ccncc1)c1ccccc1` stands 13.2%; under `Cc1cc(C)c2c(n1)sc1c(=O)[nH]c(SCc3ccccc3)nc12`, 10.8%; under `COc1cc(S(=O)(=O)NC2CC(C)(C)NC(C)(C)C2)c(OC)cc1Cl`, 6.66%.
Take `O=C(O)C(NC(=O)c1ccccc1)=C(Cl)Cl`: the “hERG current change (%, negative = inhibition) at 1uM” value stood at 14.6%.
Under `C/C(=N/NC(=O)CNC(=O)CCc1ccccc1)c1ccc(Cl)c(Cl)c1` stands 10.3%; under `CCc1nnc(NC(=O)CCS(=O)(=O)c2ccccc2)s1`, 19.4%; under `Cc1ccccc1CN1CCC(n2nccc2NC(=O)CCCc2ccccc2)CC1`, 7.05%.
Under `CCOc1ccc(NC(=O)Nc2ccc3c(c2)nc(C)n3C)cc1` stands 5.78%; under `CC1=C(C(=O)Nc2ccccc2)C(c2ccco2)NC(=S)N1` (stereo not shown), 14.2%.
`COc1ccc(-c2nc(C#N)c(N3CCC(C)CC3)o2)cc1`: the “hERG current change (%, negative = inhibition) at 1uM” value was 1.74%.
Under `COc1ccc(NC(=O)C(c2ccccc2)N(C)C(=O)c2ccc(=O)[nH]c2)cc1` (stereo not shown) stands 16.6%.
Under `Cc1ccc(-c2cc(C(=O)O)c3ccccc3n2)c(C)c1` stands 7.73%; under `COc1ccc(S(=O)(=O)N[C@@H](Cc2ccccc2)C(=O)N2CC[C@@]3(O)CCCC[C@H]3C2)cc1`, 8.3%.
Under `COc1ccc(C=O)cc1Oc1nc(Cl)ncc1F` stands 14.4%.
Turning to `CCCCCCN(C(=O)CCl)c1ccccc1`, the “hERG current change (%, negative = inhibition) at 1uM” value is 15.8%.
Under `O=C(CSc1nnc(CCc2nc3ccccc3[nH]2)n1-c1ccccc1)NCc1ccccc1` stands 10.7%; under `CC(=O)C1=C(O)C(=O)N(c2ccccn2)C1c1ccccc1[N+](=O)[O-]` (stereo not shown), 16.4%.
Under `CCN1CCCC1CNC(=O)C(=O)Nc1ccccc1OC` (stereo not shown) stands -5.69%.
Under `O=C(Nc1ccc(OC(F)F)cc1)c1cc[n+]([O-])cc1` stands 11.4%.
For the compound `CN(C1CCCCC1)S(=O)(=O)c1ccc2[nH]c(=O)oc2c1`, the “hERG current change (%, negative = inhibition) at 1uM” value is 3.8%.
For the compound `O=C1C(c2ccccc2)C(c2ccccc2)NC(c2ccccc2)C1c1ccccc1` (stereo not shown), the “hERG current change (%, negative = inhibition) at 1uM” value is reported as 9.97%.
As for `FC(F)(F)c1cccc(CN2CCN(c3ncccn3)CC2)c1`, the “hERG current change (%, negative = inhibition) at 1uM” value stood at 9.34%.
Under `Cc1ccc2nc(NCC(=O)NN)nc(-c3ccccc3)c2c1` stands 7.63%; under `Cc1cc(Cl)ccc1NNC(=O)c1c(C)noc1C`, 11.6%; under `COc1ccc(OCC(O)CN2CCOCC2)cc1` (stereo not shown), 13.6%.
Under `CC(=O)N1CCN(c2ccc(NC(=O)c3ccc(C)c([N+](=O)[O-])c3)cc2)CC1` stands 6.95%.
Take `CC(=O)c1cccc(OCC(=O)N(C)CC(=O)Nc2ccc(F)cc2)c1`: the “hERG current change (%, negative = inhibition) at 1uM” value is -2.65%.
`Cc1ccc(NC(=O)c2sccc2C)cc1S(=O)(=O)N(C)C`: the “hERG current change (%, negative = inhibition) at 1uM” value is 1.47%.
Take `Cc1cccc(NC(=O)CNC(=O)C23CC4CC(CC(Cl)(C4)C2)C3)n1`: the “hERG current change (%, negative = inhibition) at 1uM” value is reported as 8.82%.
Consider `Cc1csc(Nc2ccc(Cl)cc2)[n+]1-c1ccc(Cl)cc1.[Br-]`, for which the “hERG current change (%, negative = inhibition) at 1uM” value is recorded as 9.03%.
Under `Cc1cccc(Cl)c1NNC(=O)Nc1c([N+](=O)[O-])c(C)nn1C` stands 1.11%; under `CCN(CC)CCn1c2c(c(SCC(=O)Nc3ccccc3Cl)nc1=O)CCC2`, -25.1%; under `COc1ccc(N2CC(NS(=O)(=O)c3ccc(F)cc3)CC2=O)cc1` (stereo not shown), 31%.
Under `COc1ccc(N2CCN(C(=O)COC(=O)Cc3c(F)cccc3Cl)CC2)cc1` stands -13.7%.
Under `COc1ccc(/C=N/NC(=O)c2sc(C)nc2C)cc1` stands 9.65%.
Consider `CCOC(=O)N1CCN(C(=O)c2cc(-c3ccc(OCC)cc3)nc3ccccc23)CC1`, for which the “hERG current change (%, negative = inhibition) at 1uM” value is recorded as 2.35%.
Under `Cc1cc(C)c2sc(NC(=O)c3ccc(N4C(=O)CCC4=O)cc3)nc2c1` stands 5.2%.
Under `CC(NC1CCCC1)C(=O)Nc1ccccc1-c1ccccc1` (stereo not shown) stands 7.32%; under `CCS(=O)(=O)n1nc(-c2ccccc2)nc1NCc1ccco1`, -4.94%; under `COc1ccc(OC)c(S(=O)(=O)Nc2cc3c4c(c2)CCN4C(=O)CC3)c1`, 6.36%.
Under `Cc1ccc(NC(=O)C2CC2C)cc1S(=O)(=O)N1CCOCC1` (stereo not shown) stands -5.55%; under `O=c1c2ccccc2nc2c3ccccc3c(NCc3ccccn3)nn12`, -1.63%; under `Cc1c(NC(=O)COC(=O)C2CC3C=CC2C3)c(=O)n(-c2ccccc2)n1C` (stereo not shown), 3.49%.
Take `N#Cc1c(NC(=O)CSc2nc3ccccc3s2)sc2c1CCCC2`: the “hERG current change (%, negative = inhibition) at 1uM” value stood at 9.38%.
Under `COc1ccc(C)cc1S(=O)(=O)n1nc(C)cc1C` stands 12.9%; under `CN1CCN(S(=O)(=O)c2ccc(NS(=O)(=O)c3ccccc3)cc2)CC1`, 17.9%; under `CCCCCCn1c(SCC(=O)c2c(N)n(C)c(=O)n(C)c2=O)nc2ccccc21`, 3.31%.
Regarding `COc1ccc(S(=O)(=O)N2CCN(CCC(=O)Nc3ccc(F)cc3)CC2)cc1`, the “hERG current change (%, negative = inhibition) at 1uM” value is recorded as -3.26%.
Consider `O=c1c2ccccc2ncn1CCCSc1ccc(Cl)cc1`, for which the “hERG current change (%, negative = inhibition) at 1uM” value came to 1.24%.
As to `CS(=O)(=O)N(Cc1ccccc1Cl)c1ccc(C(=O)N2CCCC2)cc1`, the “hERG current change (%, negative = inhibition) at 1uM” value turned out to be 15.4%.
For `CSc1nc(C)cc(C)c1C(N)=O`, the “hERG current change (%, negative = inhibition) at 1uM” value is 8.7%.
For the compound `COCCNCCCCOc1ccccc1-c1ccccc1.O=C(O)C(=O)O`, the “hERG current change (%, negative = inhibition) at 1uM” value is 4.49%.
Under `COCCNCC(=O)C12CC3CC(CC(C3)C1)C2.Cl` stands 9.23%; under `COc1cc(C2NC(=O)C(C#N)=C(S)N2c2ccc(C)cc2)ccc1OC(C)C` (stereo not shown), 9.81%; under `Cc1nnsc1S(=O)c1ccc(Br)cc1` (stereo not shown), 3.94%.
Take `COc1ccc(C(CNC(=O)c2cncc(Br)c2)N(C)C)cc1` (stereo not shown): the “hERG current change (%, negative = inhibition) at 1uM” value worked out at 9.77%.

For the origin of these results see PMC4336329 (PLoS ONE, 2015).
